Measured values: the RNAGym collection of RNA variant scans (doi:10.1093/nar/gkz1192)
The source gives no read counts; variants with many changes may rest on few reads.

B1: CPEB3 Ribozyme (parent)
chain: UAACAGGGGGCCACAGCAGAAGCGUUCACGUCGCAGCCCCUGUCAGAUUCUGGUGAAUCUGCGAAUUCUGCUGUAUAUCUC

Variants of: B1
Assay: self-cleavage, relative activity (ratio to wild type); higher = more cleavage; in vitro, sequencing
How it was run: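 Relative activity was defined as the cleaved/total read fraction for a variant divided by the same fraction for the unmutated ribozyme. CPEB3 self-cleaving ribozyme libraries were made by rounds of error-prone PCR, barcoded, and transcribed in vitro with T7 RNA polymerase for 5 hours at 37°C, and cleavage ran through transcription plus a 15 min DNase I step before EDTA. Illumina sequencing of template-switched reverse transcripts gave the reads, and DNA sequencing mapped the barcodes. Averages come from three batches, using variants with at least 5 reads.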

Variant | self-cleavage
A18G G33A G42A C62G | 0.13
A18U A21G C62U | 0.07
A18G U26A U69A | 0.49
A18G U58C U67C | 0.18
A18U U41C U60C | 0.25
A18U U26C U43A | 0.3
A18G C23A C29U C37A U41A U54C | 0.12
A18U A28G A35G A45G U67C | 0.07
A18G A45G A64U | 0.23
A18U U25C G73A U76C | 0.42
A18G U31C A35U U43A U54A | 0.21
A18U A20G U76C | 0.49
A18U A57G U78C | 0.17
G19A A21G A28U U58C U74A | 0.21
A18U A28G U66A | 0.14
A18U U31A A56U | 0.11
A18G U41C U60C | 0.21
A18G C34U U41C U43A U67C | 0.12
A18U A64G A77G | 0.26
A18G U26A U31C A35U | 0.17
A18U U54C A57G | 0.15
A18U A35G U60C U66C | 0.17
A18G U43A U69C | 1.22
A18G U26C U31C | 0.12

Variant | self-cleavage
A18G U25A U76C | 0.26
A18U U25C A47U U49C U54C U76A | 0.04
A18U U26A A47U | 0.39
A18U G24A U25C A47G U48C A57G | 0.03
A18U A20G G42C | 0.09
A18G U26C U41C U51A | 0.12
A18G U26A U60A G63A | 0.16
A18G U25C C29U G33U A56G | 0.15
A18G U31A A45G | 0.39
A18U A20G A28G | 0.56
A18G G33A U60C U69C U80G | 0.04
A18U A28G U41A | 0.06
A18G A75G U80C | 0.46
A18U A20U C32U A56G | 0.14
A18G U51A A64G U72C | 0.33
A18U A35U A64G | 0.09
A18G G22C U69C C71G U78A | 0.14
A18U A28G U43C U48C C50A | 0.17
A18U U25C A47U U60C A64G A77C | 0.06
A18G U31C A45U U48C U78A C79A | 0.04
A18G U43C A56G | 0.25
G19A A20G U76A | 0.23
A18U U49C U67A | 0.04
A18G U31A A45U U80A | 0.18

Variant | self-cleavage
A18G U31A A45G U51A | 0.23
A18U C27A A35G C39G U49C | 0.07
G19A A28G U41C A45G U66C U76C | 0.13
A18U U41A U43A U54A U69A U80A | 0.07
A18G A35G A45U U49C | 0.2
A18G U26A G42A A47U | 0.04
A18G A47U U69A | 0.22
A18G A28U U41C U72C | 0.32
A18G G46U A65G | 0.11
A18G U54C U60A C71A A77G | 0.22
A18U U51C U60C | 0.31
A18U A20U A56G | 0.12
A18U A47U U48C U51C A77C | 0.07
A18G U26C G33A U43A | 0.22
A18U U25C A56G A64G A77G | 0.06
A18G A35U U67A U69C | 0.07
A18U U31C U49C U60A A65U | 0.06
A18G G30A C38A A65U | 0.05
A18G U26C G30A G52U U76C | 0.22
A18U A47G C62U | 0.29
A18G C37G U48C C79U | 0.3
A18U U51C U60C U78C | 0.23
A18G G36A U60C U72C | 0.06
A18G U31C C50U | 0.18

Variant | self-cleavage
A18G U48C U51A A57G U72C | 0.49
A18G U43A U51C U72C | 0.64
A18G U31A U76C | 0.13
A18U A28G U66C U76C C79G | 0.17
A18G U43C U49C | 0.16
A18U A65U C68A | 0.13
A18U U48C U67C | 0.12
A18G U25C C38U A56G | 0.19
A18G U41C A47G U48C | 0.11
A18G G61A C68A U76A | 0.23
A18G A57U U67C | 0.16
A18G C27U C40A U41C A47G A64G | 0.09
A18G U51G G55A | 0.3
A18U C23U A45G U60A A65G U80C | 0.06
A18G U26C A28U A45U A64G U66C | 0.42
A18G U26C G36A U43C A57G U58C U66C | 0.04
A18U G24A C40U U74C | 0.21
A18G A57G U60C | 0.34
A18G U31C G33A | 0.05
A18U A20U U26C A35G U69C | 0.08
A18U U26C G33A U41C C62G | 0.11
A18G U25C A47G A64U U67C U72C | 0.23
A18U U26C U54A U74C | 0.18
A18U U41C U60C A75G | 0.2

Variant | self-cleavage
A18G U31A C39A G55A U60C U78C | 0.07
A18U U25C U41A C50U A57G | 0.08
A18U C44A U60C U67C | 0.13
A18U U31C U66C U69C | 0.09
A18G C23A U54C U72A C79U | 0.28
A18U A45G A47U U60C | 0.09
A18G G33A U60A A77U | 0.1
A18G U51A A56G | 0.25
A18G C34U U74C | 0.62
A18G A56G U60A A65G | 0.31
A18U U25A U26G C32U A35C U49C A77U | 0.06
A18U C59A C62U A65G | 0.15
A18U U48A U60C | 0.06
A18G U41A A64U | 0.25
A18U U25C A35C A56G | 0.06
A18G U26C A28G A45U U49A U54C | 0.05
A18G U25C A64C U72C | 0.07
A18G U54C A56G U78C | 0.2
A18U G42A C81U | 0.36
A18U A45U U58A | 0.14
A18G C40A A64G | 0.18
A18G U31C U60C | 0.05
A18G C29A A56G A77G | 0.16
A18G U25C U43C U69A A75G | 0.26

Variant | self-cleavage
A18U U43A U66C U67C | 0.44
A18U A21G C40G A64G | 0.05
A18U U41C U43C | 0.26
A18U U25C G30A | 0.15
A18U A57G U69C | 0.43
G19A A28G A45G A56G A75G U80C | 0
A18G C32U C59U U60A U80C | 0.21
A18G G22C A28U U41C A47G U74C | 0.17
A18G U25C C39A C50U U60C | 0.09
A18U A20G U74A | 0.52
A18U C34A U41C U49C U60G A77G | 0.05
A18U A20U U74C | 0.22
A18U C39G U54C | 0.17
A18G U26C U31A C44U A45G C81U | 0.03
A18G U26A A28G U41A A45U U49A U66C | 0.14
A18U A20U U41C U48G U49C | 0.4
A18U A45G A56U A57G | 0.06
A18G U31A U41A U69A | 0.06
A18G A28U C32G G42A C44U A64U | 0.07
A18U A64G U74A | 0.32
A18G C40U G52A A56G A64U | 0.08
A18U A28G C39U U49C | 0.06
A18G U49G U60C U76C U78C | 0.11
A18G U43C C62G U69G | 0.14

Variant | self-cleavage
A18U A20G A21G U49C | 0.39
A18U G30U U67A | 0.09
A18U C40G U41C U58G U60C C62G U67C | 0.08
A18G U74C U76C | 1.17
A18G U26A A35G U54C U60A | 0.37
A18U A45G C62U U72A U80C | 0.22
A18U A28U U48C U54C G73C | 0.1
A18U C37U U48C G55A | 0.11
A18G U41A U49C U51C U54C U60A U72C | 0.23
A18G G33A A45G U69C | 0.11
A18G A56G U67C U72A | 0.14
A18G A56G U58C U66C | 0.17
A18G G33A A56U U58C U69C | 0.08
A18G C27A A28G U54C A57U A75G | 0.07
A18G A45G U58C U66C | 0.12
A18G U25A C32U U48C | 0.2
A18U U54A A56G U69C A75G | 0.13
A18U A20G A45C U60C U78C | 0.07
A18G G36A U43C U49C A57G U58C U72A | 0.08
A18U A28G U72A | 0.19
A18G C23U A28C C44G A64U | 0.04
A18G U25C U54A A64G | 0.17
A18G U41A U43C U49C U80C | 0.08
